Results: PMC7791157 (2021)

Biological target: His-tagged SARS-CoV-2 S NTD (SARS-CoV-2)
Experiment: BLI

B1: FLAG-tagged AXL (293F, purified) (receptor)
chain: not shown
**Q.** Which Kd does the source give for B1 here?
**A.** 882 nM
